Assay results from the supplement of paper PMC8183993.
“And” between values parts separate entries of the source, which are not always exact repeats. Equal values may be shown once. Where a name gives a salt, the structure may show the parent alone. ± gives the standard deviation of the averaged measurements. Whole data set: some 3,100 compounds, median “mean cytoplasmic OPP incorporation (global translation) relative to DMSO” near 100, cut for the lowest 2% near 56. Some of the results follow. Square brackets hold non-standard residues; d marks the D form. Peptide text beside a SMILES is read from it. pGlu = O=C1CC[C@@H](C(=O)O)N1; Thz = O=C(O)[C@@H]1CSCN1

Tested on: U2OS
Experiment: mean cytoplasmic OPP incorporation (global translation) relative to DMSO (% of DMSO); higher = more protein synthesis
Conditions: 10 µM; 24 h
Procedure: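 Primary image-based screen in U2OS cells: compounds at 10 uM for 24 h, then a 1 h o-propargyl-puromycin (OPP) pulse, click labelling, and high-throughput microscopy. Mean cytoplasmic OPP intensity and nuclei count were normalised to DMSO wells within each plate (DMSO = 100) and averaged over triplicate plates.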

SMILES | mean cytoplasmic OPP incorporation
NC[C@@H]1O[C@H](C23CC4CC(CC(C4)C2)C3)Cc2c1ccc(O)c2O | 95.8
CN(C)CCC(c1ccc(Br)cc1)c1ccccn1 (stereo not given) [Brompheniramine maleate] | 97.8
COc1ccc(Cl)cc1NC(=O)Nc1cc(C)nc2ccccc12 | 106 ± 1.7
Oc1c(Cl)cc(Cl)c2cccnc12 [Chloroxine] | 99.6
c1ccc(-c2ccc(C(c3ccccc3)n3ccnc3)cc2)cc1 (stereo not given) [Bifonazole] | 104
O=C1CC[C@@H](C(=O)N2CSC[C@H]2C(=O)O)N1 [Pidotimod] ([pGlu]-[Thz]-OH) | 101
CCCCc1oc2ccc(NS(C)(=O)=O)cc2c1C(=O)c1ccc(OCCCN(CCCC)CCCC)cc1 [Dronedarone HCl (Multaq)] | 132
CCC1(c2ccccc2)C(=O)NCNC1=O [Primidone] | 99.2 ± 3.7
CCCCCCCCCC(=O)N[C@@H](Cc1c[nH]c2ccccc12)C(=O)N[C@H](CC(N)=O)C(=O)N[C@@H](CC(=O)O)C(=O)N[C@@H]1C(=O)NCC(=O)N[C@@H](CCCN)C(=O)N[C@@H](CC(=O)O)C(=O)N[C@H](C)C(=O)N[C@@H](CC(=O)O)C(=O)NCC(=O)N[C@H](CO)C(=O)N[C@@H]([C@H](C)CC(=O)O)C(=O)N[C@@H](CC(=O)c2ccccc2N)C(=O)O[C@@H]1C [Daptomycin] | 101
CC(=O)OC[C@H]1O[C@@H]([S-])[C@H](OC(C)=O)[C@@H](OC(C)=O)[C@@H]1OC(C)=O.CCP(CC)CC.[Au+] [Auranofin] | 10.4
COc1cc(Nc2c(C#N)cnc3cc(OCCCN4CCN(C)CC4)c(OC)cc23)c(Cl)cc1Cl [Bosutinib (SKI-606)] | 99.8 ± 9.9
C=CC(=O)Nc1cccc(Sc2nc(Nc3ccc(N4CCN(C)CC4)cc3)ncc2Cl)c1 | 57.4
Cn1c(=O)c2c(ncn2CC2OCCO2)n(C)c1=O [Doxofylline] | 107
Oc1cc2c(cc1O)C(c1ccccc1)CNCC2 (stereo not given) | 122
COCC(=O)NC/C=C/c1ccc2ncnc(Nc3ccc(Oc4ccc(C)nc4)c(C)c3)c2c1 | 110
CCCc1cc(C)[nH]c(=O)c1CNC(=O)c1cc(-c2ccnc(N3CCN(C)CC3)c2)cc2c1cnn2C(C)C | 112
CC(=O)N(CC(O)CO)c1c(I)c(C(=O)NCC(O)CO)c(I)c(C(=O)NCC(O)CO)c1I (stereo not given) [Iohexol] | 99.8
CN(CCCCCCCCCCN(C)C(=O)Oc1cccc([N+](C)(C)C)c1)C(=O)Oc1cccc([N+](C)(C)C)c1 [Demecarium bromide] | 87.8
COC(=O)Nc1nc2cc(Sc3ccccc3)ccc2[nH]1 [Fenbendazole (Panacur)] | 87.8
COC(=O)Nc1nc2cc(Sc3ccccc3)ccc2[nH]1 [Fenbendazole] | 59

SMILES | mean cytoplasmic OPP incorporation
CC(C)(C)c1cc(C(C)(C)C)c(NC(=O)c2c[nH]c3ccccc3c2=O)cc1O [Ivacaftor (VX-770)] | 105
Cc1ccc([C@@H]2O[C@H](CO)[C@@H](O)[C@H](O)[C@H]2O)cc1Cc1ccc(-c2ccc(F)cc2)s1 [Canagliflozin] | 104
CC(C)NC[C@@H](C(=O)N1CCN(c2ncnc3c2[C@H](C)C[C@H]3O)CC1)c1ccc(Cl)cc1 [Ipatasertib (GDC-0068)] | 98.3
CC(C)NC[C@@H](C(=O)N1CCN(c2ncnc3c2[C@H](C)C[C@H]3O)CC1)c1ccc(Cl)cc1 | 100
CN1CCN(CC(=O)N2c3ccccc3C(=O)Nc3cccnc32)CC1 [Pirenzepine dihydrochloride] | 102
O=C(c1ccc(F)cc1)N1CCC[C@H](c2nc(-c3ccc(F)cc3)no2)C1 | 95.8
Cc1cccc(Nc2ccncc2S(=O)(=O)NC(=O)NC(C)C)c1 [Torsemide] | 99.6
COc1cc2c(cc1OC)-c1c/c(=N\c3c(C)cc(C)cc3C)n(C)c(=O)n1CC2 [Trequinsin hydrochloride] | 104
CC1(C)O[C@@H]2[C@@H](CO[C@@]3(COS(N)(=O)=O)OC(C)(C)O[C@@H]23)O1 [Topiramate] | 99.83 ± 0.64
CC[C@H](C)[C@H](N)C(=O)N1CCSC1 [P32/98 hemifumarate salt] | 107
CC[N+](CC)(CC(=O)Nc1c(C)cccc1C)Cc1ccccc1 [Denatonium benzoate] | 113
COc1cc(NS(=O)(=O)c2ccc(N)cc2)nc(OC)n1 [Sulfadimethoxine] | 106
CCNc1nc(Nc2cc(F)c(C(=O)N3CCOCC3)cc2OC)ncc1C(F)(F)F | 115
CN(C)c1cc(NC(=O)CNC(C)(C)C)c(O)c2c1C[C@H]1C[C@H]3[C@H](N(C)C)C(O)=C(C(N)=O)C(=O)[C@@]3(O)C(O)=C1C2=O [Tigecycline] | 101
O=C1Nc2ccc(I)cc2/C1=C/c1cc(Br)c(O)c(Br)c1 | 102 and 114
O=C1N=C(O)NC1(c1ccccc1)c1ccccc1 [Phenytoin sodium (Dilantin)] | 105
CN(C)c1ccc(-c2nc3ncc(Cl)c(N4CCN(CC(=O)Nc5nccs5)CC4)c3[nH]2)cc1 | 100
Clc1cccc(Nc2nnc(-c3ccccc3)c3ccccc23)c1 | 103
CC(C)Cn1cnc2c(N)nc3ccccc3c21 [Imiquimod] | 107 ± 8.2
Cc1nc2ccc(NC(=O)Nc3ccnc4cccnc34)cc2o1 | 103
